Assay results reported in the supplement of paper PMC10126150.
Values marked as one replicate rest on one cluster of the flow cell; about a third of the high ones do not repeat.

tested on: ATP; assay: switch fluorescence ratio, 500 uM ATP over buffer (Cy3 cluster intensity, sum of 5 cycles each) (fold (ratio)); higher = stronger signal-on switching upon ATP binding; sequences stand for … in TCGTCGGCAGCGTCAGATGTGTATAAGAGACAGTTTTTTTTTTTTTTTTTTTTTTTTT…TC; settings: aptamer strand: ATP DNA aptamer (quencher-CACCTGGGGGAGTATTGCGGAGGAAGG + anchor), 100 nM annealed; ATP concentration: 500 uM; one replicate
How it was run: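 The quencher-labelled ATP aptamer, at 100 nM, was annealed to Cy3-labelled switching-strand clusters on a modified Illumina MiSeq flow-cell. The clusters were imaged in selection buffer, then after 15 min with 500 uM ATP at 22 °C, and this buffer/ATP cycle ran five times with NaOH stripping and re-annealing between runs. Per-cluster fluorescence ratios, summed target-cycle over summed buffer-cycle Cy3 intensity, were averaged per switch-domain sequence. Clusters outside 100-1000 RFU were excluded.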
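Further: ATP exposure 15 min at 22 °C before imaging.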

Sequence	switch fluorescence ratio
GCTTCCAATT	1.07
GCTTCCACAG	2.07
GCTTCGGGCA	0.954
GCTTCTTCCG	3.51
GCTTCTTCGC	1.09
GCTTGAAATG	0.997
GCTTGATATA	1.03
GCTTGCAATT	0.986
GCTTGCACGC	1.03
GCTTGCCAAC	0.969
GCTTGCGGCT	0.968
GCTTGGCATA	0.997
GCTTGTATAC	1.16
GCTTGTTAGG	0.978
GCTTTAAAAA	0.957
GCTTTACCGC	1.09
GCTTTAGACG	0.914
GCTTTAGCTT	1.02
GCTTTATG	0.98
GCTTTATTAT	0.994
GCTTTCATGC	0.988
GCTTTCGCCA	1.13
GCTTTGTGCT	0.984
GCTTTTGATT	0.971
GCTTTTTAAT	1.09
GGAAAAGGAA	0.963

Sequence	switch fluorescence ratio
GGAAAAGTA	0.986
GGAAAGCACC	1.11
GGAAAGGGTA	0.969
GGAAATCTGA	1.04
GGAAATGCTT	1.03
GGAAATGGTC	0.93
GGAACTAACA	1.08
GGAACTAAGA	0.992
GGAACTAGGT	0.959
GGAACTATGG	0.976
GGAACTTGTA	0.991
GGAAGAAAT	1.01
GGAAGAAGAC	1.01
GGAAGCCGTC	1.02
GGAAGCTTTA	0.982
GGAAGGAAGG	1.01
GGAAGGGACT	1.02
GGAAGGTCTC	1.03
GGAAGTCAGC	0.919
GGAAGTTCCA	0.985
GGAATAAACC	1.06
GGAATATTTG	1
GGAATCGATG	0.992
GGAATCGGAC	1.12
GGAATCGTCG	0.96
GGAATCTGCA	1.07

Sequence	switch fluorescence ratio
GGAATCTGGT	1
GGAATGTCGA	0.942
GGAATTCCGT	0.995
GGACAAAAGG	0.956
GGACAGCGA	1.06
GGACAGTTTT	1
GGACATCTTA	0.991
GGACATGAAT	1.05
GGACATTCAT	0.984
GGACCAAAGC	1.02
GGACCAACTA	0.997
GGACCAAGGG	0.956
GGACCCCGGT	0.983
GGACCCGGGC	1.07
GGACCGCTA	1.13
GGACCTCAC	1.2
GGACCTTTGC	1.03
GGACGCCACG	1.03
GGACGCGG	1
GGACGCGTGC	1.14
GGACTAACAA	1.07
GGACTAGGGG	1.01
GGACTCGTTC	0.953
GGACTGACAC	1.32
GGACTGCCAC	1.26
GGACTGGTAG	0.99

Sequence	switch fluorescence ratio
GGACTTCGGT	1.02
GGACTTGTCA	0.992
GGACTTTACC	1.23
GGAGAAGGTG	1.39
GGAGACTTTT	0.974
GGAGATAGAA	1.07
GGAGATTGTC	0.957
GGAGCAAAGA	1.97
GGAGCAGGGG	1.08
GGAGCCTAAA	0.996
GGAGCGAGTG	1.01
GGAGCGTGTC	0.973
GGAGCTGACT	1.06
GGAGCTGGAA	1.06
GGAGGCATCA	0.952
GGAGGCTGAT	1.04
GGAGGGAAAG	0.993
GGAGGGC	0.912
GGAGGGCTTA	0.99
GGAGGGG	0.999
GGAGGGTACT	1.02
GGAGGTATTT	0.994
GGAGGTGGAT	1.03
GGAGTAAGAA	1.3
GGAGTAATCC	1.19
GGAGTAGAAG	1

Sequence	switch fluorescence ratio
GGAGTAGTGT	1.01
GGAGTATCAG	0.952
GGAGTCAATT	1.48
GGAGTCGACT	1.09
GGAGTCGGAT	0.981
GGAGTCTGGA	0.976
GGAGTGTGTC	1.02
GGAGTTACGT	1.01
GGAGTTGAGC	1.01
GGATAAAACT	1.04
GGATAAACAC	1.02
GGATAACCGC	1.06
GGATAACTGT	0.954
GGATAAGTAG	1.02
GGATAAGTC	0.991
GGATAATTTG	0.975
GGATACAGCG	0.999
GGATACCGCT	1.01
GGATAGGCAT	1
GGATAGGCT	1.01
GGATAGTCCG	1.03
GGATATAAAG	1.04
GGATATAATT	1.01
GGATATATGT	1
GGATCATTTG	0.963
GGATCCTGAG	1.03

Sequence	switch fluorescence ratio
GGATCGGCAT	1.06
GGATCGTTCT	0.983
GGATCTCATA	0.989
GGATCTGCGG	1
GGATGAAAGT	0.985
GGATGCGGGC	1.08
GGATGGAGAA	1
GGATGGCGCT	0.975
GGATGGTGTC	0.976
GGATTCCGCA	2.73
GGATTCCT	1.04
GGATTGAGTG	1
GGATTGCAGT	1.01
GGATTGGAGG	1.02
GGATTGGGTA	0.943
GGATTTGAGC	0.999
GGATTTGTAC	1
GGATTTTATT	1.05
GGATTTTGCG	1.08
GGCAAACATG	1.05
GGCAAATTTA	1.01
GGCAAGGGGA	1.04
GGCAATAAT	1.31
GGCAATTAGT	1.02
GGCAATTAT	1.06
GGCACAGGTA	1.03

Sequence	switch fluorescence ratio
GGCACATTGG	0.95
GGCACCAC	1.43
GGCACCTGTT	0.982
GGCACCTTTG	1
GGCACGGGGT	1.02
GGCACTACCC	1.19
GGCACTATAC	2.11
GGCAGAGAGG	0.976
GGCAGATGTG	1.03
GGCAGGCGCG	0.996
GGCAGGGTCG	1.02
GGCAGGTTAT	1.04
GGCAGTTGTT	0.958
GGCATACTGG	1
GGCATACTTG	1.02
GGCATATCCT	1.02
GGCATATCGG	0.973
GGCATCGCTG	0.927
GGCATTATTC	1.04
GGCATTGTA	0.98
GGCATTTAAC	1.02
GGCATTTCG	1.34
GGCCAATCTC	1.03
GGCCATTCTA	0.994
GGCCATTGAC	1.04
GGCCCACGGA	1.02

Sequence	switch fluorescence ratio
GGCCCTCCCT	1.07
GGCCGAAAAT	1.07
GGCCGAAAGA	0.972
GGCCGAGGAT	0.992
GGCCGAGTTC	1
GGCCGCCAGT	1.03
GGCCGGAGTT	1.03
GGCCGGCGTT	1.02
GGCCGTCATG	1.01
GGCCGTTACA	1.04
GGCCTAGGTT	1.04
GGCCTCTTTC	1.02
GGCCTGTGAC	0.973
GGCCTTGATC	1.02
GGCGAAAATG	0.996
GGCGAAGAGG	1.03
GGCGAAGCTC	0.987
GGCGACAAGT	0.972
GGCGACCCTT	1.02
